In PubChem BioAssay (NCATS):
Inconclusive means that the source gave no clear call. Such entries were picked first, then a sample of the others. For some of these results: Where the call is inconclusive, the potency comes from a doubtful curve fit. For some of these results: “Side channel” marks fits to a control or component signal instead of the main read-out. Calls of active or inactive are those of the source. Unless noted, calls follow the shape of the dose curve; as a rule, active = well fitted curve in either direction with a large enough effect (not every such curve was filed as active); inconclusive = small, poorly fitted or top-dose-only effect, or another doubt; inactive = flat fitted curve, though single readings scatter.

Legend:
[1] = AP1 Signaling Pathway (AID 357); details: ME-180 AP-1-bla reporter, EGF-induced, beta-lactamase ratio, 5 h; at 17.2 µM (top of the series) unless noted;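 also: ME-180 reporter cells stimulated with EGF at its EC50 level; top concentration of the series differs between compounds; % is scaled to controls: 0 for no effect and ±100 for the full control effect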
Outline: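 First, ME-180 AP-1-bla cells were cultured overnight at 37 °C in low-serum Opti-MEM. Next, titrated compounds with EC50 EGF were incubated 5 hours. Finally, CCF4 was added for 2.5 hours and the 460/530 nm ratio recorded.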

[2] = NFAT Signaling Pathway (AID 444); details: Jurkat NFAT-bla M1, carbachol, beta-lactamase ratio, 5 h; at 17.2 µM (top of the series) unless noted;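 also: carbachol stimulus at about its EC50 of 1 µM final; % is scaled to controls: 0 for no effect and ±100 for the full control effect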
Outline: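 Read-out: CCF4 FRET ratio (460 nm/530 nm) after 1 h RT dye loading, used for %activity and AC50 from titration series. Cells: Jurkat NFAT-β-lactamase/M1 line, treated with compound plus 1 uM carbachol for 5 h, 37 °C.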

[3] = Stat Signaling Pathway (AID 446); details: ME-180 SIE beta-lactamase reporter, IL-6 stimulated, 5 h; at 7.69 µM (top of the series) unless noted;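 also: ME-180 cervical cancer cells given 40 pM IL-6 alongside compound; SIE-controlled beta-lactamase reporter measured as 460/530 nm FRET emission ratio; top concentration of the series differs between compounds; % is scaled to controls: 0 for no effect and ±100 for the full control effect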
Outline: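 Emission at 460 and 530 nm (excitation 405 nm) reports SIE-controlled beta-lactamase in ME-180 cells. Cells received compound with 40 pM IL-6 for 5 hrs at 37 C; data scaled between 300 pM IL-6 and 125 nM JAK-inhibitor controls.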

[4] = qHTS Assay for Identification of Small Molecule Agonists for Hypoxia Response Element Signaling Pathway (AID 914; active = well fitted activation curve with a large enough effect in the signal ratio, with a control signal flat, not every such curve was filed as active; inconclusive = small, poorly fitted or top-dose-only effect, or effect the other way, or a change in a side signal; the % refers to the signal ratio; also: potency is read from the fitted curve at half-maximal effect); details: ME-180 (cervical carcinoma) HRE-bla reporter, beta-lactamase ratio, CoCl2, 17 h; activation: hits give high values
Outline: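 Reporter activity (beta-lactamase, CCF4 460nm/530nm ratio) in HRE-bla ME-180 cells is recorded after 17 h compound exposure with EC50 CoCl2 at 37 degrees Celsius. AC50 values come from titration data.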

[5] = molecular target: Cytochrome P450 2C9 (Homo sapiens) (UniProt P11712); test: qHTS Assay for Inhibitors and Substrates of Cytochrome P450 2C9 (AID 883; active = well fitted inhibition curve with a large enough effect; inconclusive = small, poorly fitted or top-dose-only effect; inactive = no such curve, though single readings can be large or run the other way; also: potency is read from the fitted curve at half-maximal effect; nearly all actives have a fitted effect of over 60% in size); details: recombinant CYP2C9, luciferin-H luminescence, 60 min; activity change, negative = inhibition: at 57.1 µM (top of the series)
Chain of UniProt P11712 (P11712 whole entry, looked up): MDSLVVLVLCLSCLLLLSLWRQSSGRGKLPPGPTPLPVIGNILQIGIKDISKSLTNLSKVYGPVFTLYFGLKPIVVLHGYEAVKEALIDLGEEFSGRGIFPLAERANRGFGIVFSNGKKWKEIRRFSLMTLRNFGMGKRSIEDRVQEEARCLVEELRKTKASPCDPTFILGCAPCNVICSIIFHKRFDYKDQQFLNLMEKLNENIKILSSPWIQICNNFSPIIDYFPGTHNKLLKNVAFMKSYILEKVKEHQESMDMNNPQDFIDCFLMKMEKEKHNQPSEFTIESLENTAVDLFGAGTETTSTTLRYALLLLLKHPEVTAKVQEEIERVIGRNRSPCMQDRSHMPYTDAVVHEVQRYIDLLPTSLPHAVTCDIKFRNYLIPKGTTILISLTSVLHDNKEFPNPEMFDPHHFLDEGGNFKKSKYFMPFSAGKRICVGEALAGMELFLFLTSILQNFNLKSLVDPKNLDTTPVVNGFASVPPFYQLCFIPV
Outline: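 Turnover of Luciferin-H (100uM, KM) by 10nM human CYP2C9 was measured over 60 min at 37C with NADPH regeneration; inhibitors and some substrates reduce luminescence. Data normalized to sulphaphenazole 57uM.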

[6] = molecular target: Cytochrome P450 3A4 (Homo sapiens) (UniProt P08684); test: qHTS Assay for Inhibitors and Substrates of Cytochrome P450 3A4 (AID 884; active = well fitted inhibition curve with a large enough effect; inconclusive = small, poorly fitted or top-dose-only effect; inactive = no such curve, though single readings can be large or run the other way; also: potency is read from the fitted curve at half-maximal effect; nearly all actives have a fitted effect of over 50% in size)
Chain of UniProt P08684 (P08684 whole entry, looked up): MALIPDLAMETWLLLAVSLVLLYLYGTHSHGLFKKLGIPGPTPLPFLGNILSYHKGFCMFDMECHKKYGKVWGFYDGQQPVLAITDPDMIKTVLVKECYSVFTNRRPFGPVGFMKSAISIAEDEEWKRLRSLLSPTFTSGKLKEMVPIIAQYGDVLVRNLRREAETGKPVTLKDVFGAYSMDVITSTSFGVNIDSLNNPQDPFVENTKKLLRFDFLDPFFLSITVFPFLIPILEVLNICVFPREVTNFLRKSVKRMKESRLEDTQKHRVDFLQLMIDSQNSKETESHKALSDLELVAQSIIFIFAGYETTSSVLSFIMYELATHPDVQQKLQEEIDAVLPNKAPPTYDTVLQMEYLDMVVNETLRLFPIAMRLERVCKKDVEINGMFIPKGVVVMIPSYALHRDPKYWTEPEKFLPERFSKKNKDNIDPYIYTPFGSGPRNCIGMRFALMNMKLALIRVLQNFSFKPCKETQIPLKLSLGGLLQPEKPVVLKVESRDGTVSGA
Outline: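 Luminescent readout of luciferin produced by CYP3A4 (20 nM) dealkylation of Luciferin-PPXE, 25 uM (its KM). NADPH-driven reaction ran 60 min at RT after 10 min compound preincubation; data scaled to 57 uM ketoconazole as 100% inhibition.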

[7] = molecular target: Cytochrome P450 2D6 (Homo sapiens) (UniProt P10635); test: qHTS Assay for Inhibitors and Substrates of Cytochrome P450 2D6 (AID 891; active = well fitted inhibition curve with a large enough effect; inconclusive = small, poorly fitted or top-dose-only effect; inactive = no such curve, though single readings can be large or run the other way;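 also: luciferin methyl ether substrate demethylated by CYP2D6 with NADPH regeneration; top concentration of the series differs between compounds; % is scaled to controls: 0 for no effect and ±100 for the full control effect; nearly all actives have a fitted effect of over 60% in size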); details: recombinant CYP2D6, luciferin-ME EGE luminescence; activity change, negative = inhibition: at 57.1 µM (top of the series)
Chain of UniProt P10635 (P10635 whole entry, looked up): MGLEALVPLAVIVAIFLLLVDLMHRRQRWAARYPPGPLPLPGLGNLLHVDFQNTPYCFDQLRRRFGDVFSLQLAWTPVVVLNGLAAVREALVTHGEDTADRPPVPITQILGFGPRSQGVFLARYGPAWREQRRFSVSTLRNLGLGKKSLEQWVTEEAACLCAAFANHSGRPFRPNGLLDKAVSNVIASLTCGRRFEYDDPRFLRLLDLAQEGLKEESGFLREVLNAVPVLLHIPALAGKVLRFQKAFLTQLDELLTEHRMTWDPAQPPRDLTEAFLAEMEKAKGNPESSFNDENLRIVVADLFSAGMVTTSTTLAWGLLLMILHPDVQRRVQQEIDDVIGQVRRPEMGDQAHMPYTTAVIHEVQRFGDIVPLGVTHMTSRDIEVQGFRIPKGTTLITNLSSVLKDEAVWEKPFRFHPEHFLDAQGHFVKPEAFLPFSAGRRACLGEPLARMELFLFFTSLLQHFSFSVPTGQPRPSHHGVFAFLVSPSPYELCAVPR
Outline: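 Luminescent read-out of luciferin formed by 5 nM human CYP2D6 demethylating 30 uM Luciferin-ME EGE (Km level) over 60 min at room temperature after NADPH regeneration addition. Data normalized to full inhibition by 1.43 uM quinidine.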
Tags tell the direction and shape of the fitted curve or compound fluorescence and quenching.

N#C/C(=C\N1CCN(Cc2ccc3c(c2)OCO3)CC1)c1nc2ccccc2s1
activity change, negative = inhibition [1]: inconclusive: -39.1% [inhibitor] | activity change, negative = inhibition [2]: inconclusive: -51.8% [inhibitor] | activity, negative = inhibition [3]: inconclusive: -33.5% [inhibitor] [at 17.2 µM] | Potency [4]: inconclusive: 0.316 µM [inhibitor, full curve]

CCCCSc1nc(N)c(C#N)c(-c2cccs2)c1C#N
activity change, negative = inhibition [1]: inconclusive: -62.2% [inhibitor] | activity change, negative = inhibition [2]: inconclusive: -109% [inhibitor] | activity, negative = inhibition [3]: inconclusive: -53% [inhibitor] [at 17.2 µM] | Potency [4]: inconclusive: 6.31 µM [inhibitor, partial curve]

O=C1C(Cl)=C(Nc2ccc(S(=O)(=O)Nc3ccccn3)cc2)C(=O)c2ccccc21
activity change, negative = inhibition [1]: inconclusive: 37.7% [activator] [at 7.69 µM] | activity change, negative = inhibition [2]: inconclusive: -78.9% [inhibitor] [at 7.69 µM] | activity, negative = inhibition [3]: inconclusive: -77.6% [inhibitor] | Potency [5]: active: 2 µM | Potency [4]: inconclusive: 5.01 µM [cytotoxic, side channel, single point]

FC(F)(F)c1cccc(-c2nc3nc(Cl)c(Cl)nc3[nH]2)c1
activity change, negative = inhibition [1]: inconclusive: -6.55% [inhibitor] [at 7.69 µM] | activity change, negative = inhibition [2]: inconclusive: -75% [inhibitor] [at 7.69 µM] | activity, negative = inhibition [3]: inconclusive: -49% [inhibitor] | Potency [5]: active: 3.98 µM | Potency [6]: inconclusive: 5.01 µM [inhibitor, single point]

CC[C@@H]1CN2CCc3cc(OC)c(OC)cc3[C@H]2C[C@@H]1C[C@H]1NCCc2cc(OC)c(OC)cc21
activity change, negative = inhibition [1]: active: -115% | activity change, negative = inhibition [2]: active: -120% | activity, negative = inhibition [3]: active: -94.8% [at 17.2 µM] | Potency [7]: inactive
